PubChem BioAssay AID504706 (National Center for Advancing Translational Sciences (NCATS), 2011)
The whole screen tested about 320,000 compounds, of which about 200 (0.062%) were called active. Inconclusive results, whose numbers are uncertain, are shown with a selection of clear calls. Calls come from the whole dose curve; as a rule, active = well fitted activation curve with a large enough effect; inconclusive = small, poorly fitted or top-dose-only effect; inactive = no such curve, though single readings can be large or run the other way. Potencies of inconclusive entries are left out as doubtful fits.

Assay: qHTS assay for re-activators of p53 using a Luc reporter; note: nearly all actives have a fitted effect of over 45% in size
Details: H1299 p53-A138V BP100-luciferase reporter, luminescence, 24 h; series mostly up to 92.2 µM
Procedure, shortened: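 H1299 (p53-null), stable ts p53-A138V + BP100-Luc; 1000 cells/well, Opti-MEM/10% FBS; cpd 4 pt, 1:5; 24 h, 37 deg C, 5% CO2; detection reagent 10 min RT; luminescence.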
Potency is the fitted concentration of half-maximal effect; tags give direction and shape of the fitted curve.

Structure (SMILES) | Potency
Cc1nc(CC(=O)Nc2nc(-c3ccccc3)cs2)cs1 | inconclusive [activator, partial curve, poor fit]
Cc1ccc(/C=C/C(=O)c2c(C)cc(C)[nH]c2=O)cc1 | inactive
COc1ccc2c(c1)c(CC(=O)Nc1cc(C)ccc1C)c(C)n2C(=O)c1ccc(Cl)cc1 | inactive
COc1ccc(C(=O)Cc2ccc(F)cc2)c(OC)c1 | inconclusive [activator, partial curve, poor fit]
CC(C)c1ccc(NC(=O)Cn2ncc3ccccc32)cc1 | inconclusive [activator, full curve, poor fit]
CCC(=O)Nc1cccc(NC(=O)c2cc3ccccc3o2)c1 | inconclusive [activator, full curve, poor fit]
Cc1cc(NCCN(C)C)n2nc(-c3cccs3)cc2n1 | inconclusive [activator, partial curve, poor fit]
CC(Sc1cccc[n+]1[O-])c1ccccc1 (stereo not given) | inconclusive [activator, single point]
COc1cccc(C(=O)O/N=C(\N)CS(=O)(=O)c2ccccc2)c1 | inconclusive [activator, partial curve, poor fit]
O=C(NCCC1=CCCCC1)NC12CC3CC(CC(C3)C1)C2 | inconclusive [activator, partial curve, poor fit]
CCOc1ccc(N2CC(=O)N(c3ccc(OCC)cc3)CC2=O)cc1 | inactive
COc1ccc(-c2cc(-c3cc(OC)ccc3O)[nH]n2)cc1 | inconclusive [activator, partial curve, poor fit]
c1cncc(C2Nc3ccccc3-c3nc4ccccc4n32)c1 (stereo not given) | inactive
CCN(CC)C(=S)Nc1ccc(Cl)c(Cl)c1 | inactive
CCOc1ccc(-n2c(C)cc(C(=O)NS(=O)(=O)c3ccc(C)cc3)c2C)cc1 | inconclusive [activator, single point]
COc1ccccc1NS(=O)(=O)c1ccc(C)c(C(=O)NC2CCN(Cc3ccccc3)CC2)c1 | inactive
CCOc1ccc(C(=O)NCCNC(=O)c2ccc(OCC)cc2)cc1 | inconclusive [activator, single point]
Cc1cccc2nc(=S)n(C(=O)c3ccco3)n12 | inconclusive [activator, partial curve, poor fit]
O=C(CN1CCN(Cc2ccccc2)CC1)N/N=C/c1ccco1 | inactive
CC(C)c1ccc(C(=O)Nc2cccnc2)cc1 | inconclusive [activator, partial curve, poor fit]
